The text below walks through data of PMC7819943, “Rice protein-binding microarrays: a tool to detect cis-acting elements near promoter regions in rice”.

Some of the results follow.

The test concerns the target T1, OsWOX13 (Oryza sativa, UniProt Q5QMM3 1-267).
T1 sequence: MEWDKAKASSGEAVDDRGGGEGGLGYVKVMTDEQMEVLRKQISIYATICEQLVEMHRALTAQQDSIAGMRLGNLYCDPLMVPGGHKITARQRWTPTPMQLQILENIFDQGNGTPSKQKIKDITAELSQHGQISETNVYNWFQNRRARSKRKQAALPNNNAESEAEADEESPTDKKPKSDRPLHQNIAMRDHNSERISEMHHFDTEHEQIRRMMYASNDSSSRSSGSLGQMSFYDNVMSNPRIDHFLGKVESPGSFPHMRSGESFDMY
Put plainly: protein-binding microarray (RPBM); PBS, 2% BSA, 51.3 ng/ul salmon testes DNA, 50 uM zinc acetate, 200 nM TF, 25 C, 1 h; high values mean tight binding. To be noted: protein: recombinant; tags: N-terminal polyhistidine and DsRed monomer fusion (pET32a); label: CyDye5-dUTP incorporated in the synthesized complementary strand; 3' TTTTT single-stranded linker to array surface; dsDNA, one strand shown. The essentials: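 Transcription factors, each fused N-terminally to a polyhistidine tag and DsRed, were expressed in E. coli BL21-CodonPlus and purified on Ni–NTA. A custom Agilent array was made double-stranded by primer extension with Cy5-dUTP and blocked with 2% BSA. It was incubated with 200 nM protein in PBS, 2% BSA, salmon testes DNA and 50 µM zinc acetate at 25 °C for 1 h, then washed. The binding signal is per-feature fluorescence intensity (arbitrary units) read on an Axon 4000B scanner.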
With “ACAGCATTAGTGATTAGTGTTTAATCCGGCCCAATAATTCCGGAGTCACCTAGTGCAG”, the binding signal was 6120 fluorescence intensity (a.u.).
For “TACTGTCAATTTGCGTCTCGCTATAAATATGTTTCTGCTTCGGAGTCACCTAGTGCAG”, the binding signal was 4930 fluorescence intensity (a.u.).
Consider “ATAAAATTTTCATTTAAATTTGTATGAAATTTCTATTTTCCGGAGTCACCTAGTGCAG”, for which the binding signal was 11600 fluorescence intensity (a.u.).
For the sequence “TTTGATAGAATTTATTTCAAATAAAATCAAAATTAGCAATCGGAGTCACCTAGTGCAG”, the binding signal is 33600 fluorescence intensity (a.u.).
The figure for “ATCAGCACAACAATAATTAATTTACGGTGCTCGGACATGACGGAGTCACCTAGTGCAG” is 12600 fluorescence intensity (a.u.); for “GGTGGGACGTGGTGGGCGTCAAGGCGGCGGTGGGAGGGGACGGAGTCACCTAGTGCAG” it is 3810 fluorescence intensity (a.u.).
On to “TCAAATTTGAATCAGATATAATTTAAATTCAAATTTGAAACGGAGTCACCTAGTGCAG”, for which the binding signal is 13200 fluorescence intensity (a.u.).
As to “ATAGATTAATATAAAATATATCACTCCGCAAACATATATACGGAGTCACCTAGTGCAG”, the binding signal is 6510 fluorescence intensity (a.u.).
“AATCTATCCTCAATTGATTTACGAGAAAATCACGAGAAAACGGAGTCACCTAGTGCAG”: the binding signal is 3510 fluorescence intensity (a.u.).
Turning to “CTCTCTAATTTCAGAAACTAAACACAGCCTTGGTTTAGTTCGGAGTCACCTAGTGCAG”, the binding signal was 6980 fluorescence intensity (a.u.).
As for “CATCATTGAAATTTGAACACTTCTATTAATTAGATGCATTCGGAGTCACCTAGTGCAG”, the figure is 5050 fluorescence intensity (a.u.); as for “TAATAATTTTATTCATAAATTACTTTTCGTTTACAAATATCGGAGTCACCTAGTGCAG”, 3630 fluorescence intensity (a.u.).
For the sequence “GTTTTCGAATCTCGAGTTGATTGTTTTCAAATCTCAAATTCGGAGTCACCTAGTGCAG”, the binding signal was 5430 fluorescence intensity (a.u.).
As to “TCATCATGTGCTAAATTAAATTGTTGATCGGAAACCAAGACGGAGTCACCTAGTGCAG”, the binding signal is 5100 fluorescence intensity (a.u.).
Consider “AAATTATCACTAAACCTATAGTTTTGTGATAATTTTATTACGGAGTCACCTAGTGCAG”, for which the binding signal was 24800 fluorescence intensity (a.u.).
In the case of “CACGGGTTAATTAACAAAACTCAACTTGTTTCTAAGTAGGCGGAGTCACCTAGTGCAG”, the binding signal was 19000 fluorescence intensity (a.u.).
As for “TAATTAATCACGTGCTAATCGATCGCTCTGGACGTGTGCACGGAGTCACCTAGTGCAG”, the figure is 10900 fluorescence intensity (a.u.); as for “TATATGATTAGTTTTGTAAGTAGTCTATATTTAATACTCTCGGAGTCACCTAGTGCAG”, 22500 fluorescence intensity (a.u.); as for “TAAATAATTGATATGCTAATAAATAATTAGTCCCTTTTACCGGAGTCACCTAGTGCAG”, 24300 fluorescence intensity (a.u.).
For the sequence “TTAATGATTTATTGTACGTGAAAGAGAATCACCAAGAGTACGGAGTCACCTAGTGCAG”, the binding signal was 19300 fluorescence intensity (a.u.).
The figure for “ATAATTGAATTTATAAGACATAGCATGTTAACAAAGCAAACGGAGTCACCTAGTGCAG” is 32600 fluorescence intensity (a.u.); for “AGTTTAATAGTGTTAATTAAAATGATAATAAAGTAAACACCGGAGTCACCTAGTGCAG” it is 25300 fluorescence intensity (a.u.); for “ATGTAAAATTTAATTTTCTATATTATATTAAAGTTGTCACCGGAGTCACCTAGTGCAG” it is 12700 fluorescence intensity (a.u.).
As for “GAGAGAATCACAAATCACATCGATAAACATCTATACTCCACGGAGTCACCTAGTGCAG”, the binding signal was 3190 fluorescence intensity (a.u.).
On to “GTCTAAATTTGTAGTAATATGATATGTCGCTTTTAGTGTTCGGAGTCACCTAGTGCAG”, for which the binding signal was 20700 fluorescence intensity (a.u.).
As for “CATAAAATTGATGTTATTATATCTACATTTAAAAGTATTTCGGAGTCACCTAGTGCAG”, the binding signal is 5740 fluorescence intensity (a.u.).
Regarding “TAAAATATTAATCATGTTTTATCATCTAACAACAATGAAACGGAGTCACCTAGTGCAG”, the binding signal was 4550 fluorescence intensity (a.u.).
Regarding “CATCATTCCCATCAATCAATCAAATCCGTGCGAGAAGCGGCGGAGTCACCTAGTGCAG”, the binding signal is 31800 fluorescence intensity (a.u.).
Take “GCGAAGATTTGATGTAATCATGTAGACTACCATCTCCATACGGAGTCACCTAGTGCAG”: the binding signal was 19900 fluorescence intensity (a.u.).
For the sequence “CCATTAGATTAGCACTAATTATCATACTTAGTCATTAGCTCGGAGTCACCTAGTGCAG”, the binding signal is 59100 fluorescence intensity (a.u.).
“AATTTCTAATAATTATACGTCTGACCTTATTCTGAAGATTCGGAGTCACCTAGTGCAG”: the binding signal is 4420 fluorescence intensity (a.u.).
For “CCAAATTAGAGAGGTTCAGATATCCTTATCTCGAAAGAGTCGGAGTCACCTAGTGCAG”, the binding signal was 4440 fluorescence intensity (a.u.).
“GAGGCCAATCAGGTTGATGATGAAGAGGATGATTTCAGCGCGGAGTCACCTAGTGCAG”: the binding signal is 18200 fluorescence intensity (a.u.).
As for “CCTTAATTCAAGTTATGAAATTCAAAACTGCTCCGTTTCCCGGAGTCACCTAGTGCAG”, the binding signal is 6040 fluorescence intensity (a.u.).
As for “CATCTTAATTGGGCCAGAAGGTCATATATGTACTGGAAGGCGGAGTCACCTAGTGCAG”, the binding signal is 28200 fluorescence intensity (a.u.).
Take “CCATATAATAGGCAATTACTTATGCAAATGATAACTGATCCGGAGTCACCTAGTGCAG”: the binding signal is 17500 fluorescence intensity (a.u.).
The figure for “ATGTCAACAAATTACGCATAAACTAAAATTCATGGACACCCGGAGTCACCTAGTGCAG” is 8200 fluorescence intensity (a.u.).
With “CCATATCAATATCATATAAACTGGATTAGGGCTATTACCTCGGAGTCACCTAGTGCAG”, the binding signal was 3840 fluorescence intensity (a.u.).
For the sequence “GCGAATAATTTGTATGTATAAGTAGTTGCTTTCAATATGTCGGAGTCACCTAGTGCAG”, the binding signal was 7010 fluorescence intensity (a.u.).
As to “TTGGTAAAATTGACAAATATATAGCTACATTTAGTTGTTACGGAGTCACCTAGTGCAG”, the binding signal was 14200 fluorescence intensity (a.u.).
Regarding “TCCAATCATATTTTGATTTATTTTGGAACGGAGAGAGAAGCGGAGTCACCTAGTGCAG”, the binding signal was 17100 fluorescence intensity (a.u.).
Take “TAAAATTGCATCATCTTACTTTTACATTTGAATCATCTATCGGAGTCACCTAGTGCAG”: the binding signal was 4050 fluorescence intensity (a.u.).
